Binding signal data for 32 sequences are collected here from article PMC12820563, “FoxP3 forms a head-to-head dimer in vivo and stabilizes its multimerization on adjacent microsatellites”.

This is one part of the list.

The target of this test is T1, MBP-FoxP1dN (Mus musculus, UniProt P58462 326-579).
T1 sequence: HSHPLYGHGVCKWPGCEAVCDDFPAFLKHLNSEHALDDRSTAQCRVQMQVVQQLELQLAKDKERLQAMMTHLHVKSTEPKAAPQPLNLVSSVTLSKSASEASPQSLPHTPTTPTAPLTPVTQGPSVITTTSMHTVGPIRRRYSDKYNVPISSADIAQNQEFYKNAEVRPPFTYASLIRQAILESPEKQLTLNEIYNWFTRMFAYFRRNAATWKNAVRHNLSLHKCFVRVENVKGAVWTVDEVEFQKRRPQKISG
The experiment in a line: PD-seq (MBP pull-down with sequencing); 20 mM Tris-HCl pH 7.5, 100 mM NaCl, 1.5 mM MgCl2, 0.4 uM protein, 0.1 uM dsDNA library, 30 min, room temperature, amylose pull-down; high values mean tight binding. To be noted: protein: recombinant; tags: His6-MBP; chain copies: 2; dsDNA, one strand shown. An outline of the steps:
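His6-MBP-tagged mouse FoxP3 or FoxP1 fragment lacking the N-terminus, expressed in E. coli, was mixed at 0.4 µM with 0.1 µM Klenow-filled double-stranded degenerate DNA library. Incubation was 30 min at room temperature in Tris pH 7.5 buffer with NaCl and MgCl2. Complexes were caught on amylose resin and washed three times; DNA was released with proteinase K, PCR-barcoded and Illumina-sequenced. Binding is reads-per-million enrichment, pull-down over input, with replicates pooled.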
For the sequence “GATGATTGTTCTCCCAGCTGATGAATTGTTTAGTTCGAGTAAACAAATTTTCCTAATCTTTCTGTTCAAGCGCCATCTAC”, the binding signal was 1.94 RPM ratio (pull-down/input).

In the case of “GATGATTGTTCTCCCAGCTGATGAATTCTGCAACTCGAGTAAACAAATTTTCCTAATCTTTCTGTTCAAGCGCCATCTAC”, the binding signal is 0.954 RPM ratio (pull-down/input).

In the case of “GATGATTGTTCTCCCAGCTGATGAATTAGACGACTCGAGTAAACAAATTTTCCTAATCTTTCTGTTCAAGCGCCATCTAC”, the binding signal was 0.881 RPM ratio (pull-down/input).

Regarding “GATGATTGTTCTCCCAGCTGATGAATTTCTTTGCTCGAGTAAACAAATTTTCCTAATCTTTCTGTTCAAGCGCCATCTAC”, the binding signal is 0.931 RPM ratio (pull-down/input).

In the case of “GATGATTGTTCTCCCAGCTGATGAATTTTACACGTCGAGTAAACAAATTTTCCTAATCTTTCTGTTCAAGCGCCATCTAC”, the binding signal is 0.96 RPM ratio (pull-down/input).

For the sequence “GATGATTGTTCTCCCAGCTGATGAATTAAGCTCATCGAGTAAACAAATTTTCCTAATCTTTCTGTTCAAGCGCCATCTAC”, the binding signal was 0.881 RPM ratio (pull-down/input).

For “GATGATTGTTCTCCCAGCTGATGAATTATGTCGTTCGAGTAAACAAATTTTCCTAATCTTTCTGTTCAAGCGCCATCTAC”, the binding signal was 1.12 RPM ratio (pull-down/input).

Turning to “GATGATTGTTCTCCCAGCTGATGAATTGGGAGCCTCGAGTAAACAAATTTTCCTAATCTTTCTGTTCAAGCGCCATCTAC”, the binding signal is 0.844 RPM ratio (pull-down/input).

Consider “GATGATTGTTCTCCCAGCTGATGAATTGGACAGCTCGAGTAAACAAATTTTCCTAATCTTTCTGTTCAAGCGCCATCTAC”, for which the binding signal is 0.859 RPM ratio (pull-down/input).

Regarding “GATGATTGTTCTCCCAGCTGATGAATTTCCAAACTCGAGTAAACAAATTTTCCTAATCTTTCTGTTCAAGCGCCATCTAC”, the binding signal was 0.878 RPM ratio (pull-down/input).

In the case of “GATGATTGTTCTCCCAGCTGATGAATTCGTGTACTCGAGTAAACAAATTTTCCTAATCTTTCTGTTCAAGCGCCATCTAC”, the binding signal is 1.03 RPM ratio (pull-down/input).

Turning to “GATGATTGTTCTCCCAGCTGATGAATTATTTAGGTCGAGTAAACAAATTTTCCTAATCTTTCTGTTCAAGCGCCATCTAC”, the binding signal is 1.3 RPM ratio (pull-down/input).

“GATGATTGTTCTCCCAGCTGATGAATTAGATAATTCGAGTAAACAAATTTTCCTAATCTTTCTGTTCAAGCGCCATCTAC”: the binding signal was 1.04 RPM ratio (pull-down/input).

As to “GATGATTGTTCTCCCAGCTGATGAATTGGTTTGATCGAGTAAACAAATTTTCCTAATCTTTCTGTTCAAGCGCCATCTAC”, the binding signal was 0.97 RPM ratio (pull-down/input).

For the sequence “GATGATTGTTCTCCCAGCTGATGAATTGCTGAAATCGAGTAAACAAATTTTCCTAATCTTTCTGTTCAAGCGCCATCTAC”, the binding signal is 1.1 RPM ratio (pull-down/input).

Consider “GATGATTGTTCTCCCAGCTGATGAATTTGGTATATCGAGTAAACAAATTTTCCTAATCTTTCTGTTCAAGCGCCATCTAC”, for which the binding signal was 1.23 RPM ratio (pull-down/input).

Consider “GATGATTGTTCTCCCAGCTGATGAATTACGGCATTCGAGTAAACAAATTTTCCTAATCTTTCTGTTCAAGCGCCATCTAC”, for which the binding signal is 1.15 RPM ratio (pull-down/input).

For “GATGATTGTTCTCCCAGCTGATGAATTAGAGTTTTCGAGTAAACAAATTTTCCTAATCTTTCTGTTCAAGCGCCATCTAC”, the binding signal is 1.11 RPM ratio (pull-down/input).

With “GATGATTGTTCTCCCAGCTGATGAATTCATATGGTCGAGTAAACAAATTTTCCTAATCTTTCTGTTCAAGCGCCATCTAC”, the binding signal was 0.907 RPM ratio (pull-down/input).

With “GATGATTGTTCTCCCAGCTGATGAATTAAGTCGTTCGAGTAAACAAATTTTCCTAATCTTTCTGTTCAAGCGCCATCTAC”, the binding signal is 0.923 RPM ratio (pull-down/input).

On to “GATGATTGTTCTCCCAGCTGATGAATTGTTGCAATCGAGTAAACAAATTTTCCTAATCTTTCTGTTCAAGCGCCATCTAC”, for which the binding signal was 1.87 RPM ratio (pull-down/input).

As to “GATGATTGTTCTCCCAGCTGATGAATTATCCGTTTCGAGTAAACAAATTTTCCTAATCTTTCTGTTCAAGCGCCATCTAC”, the binding signal is 0.979 RPM ratio (pull-down/input).

Regarding “GATGATTGTTCTCCCAGCTGATGAATTTTCGCATTCGAGTAAACAAATTTTCCTAATCTTTCTGTTCAAGCGCCATCTAC”, the binding signal is 1.32 RPM ratio (pull-down/input).

In the case of “GATGATTGTTCTCCCAGCTGATGAATTAGATGCGTCGAGTAAACAAATTTTCCTAATCTTTCTGTTCAAGCGCCATCTAC”, the binding signal is 1.47 RPM ratio (pull-down/input).

Take “GATGATTGTTCTCCCAGCTGATGAATTGTCTAGTTCGAGTAAACAAATTTTCCTAATCTTTCTGTTCAAGCGCCATCTAC”: the binding signal was 1.06 RPM ratio (pull-down/input).

Regarding “GATGATTGTTCTCCCAGCTGATGAATTGTCGCCCTCGAGTAAACAAATTTTCCTAATCTTTCTGTTCAAGCGCCATCTAC”, the binding signal was 0.934 RPM ratio (pull-down/input).

Consider “GATGATTGTTCTCCCAGCTGATGAATTACCCTGGTCGAGTAAACAAATTTTCCTAATCTTTCTGTTCAAGCGCCATCTAC”, for which the binding signal was 0.836 RPM ratio (pull-down/input).

“GATGATTGTTCTCCCAGCTGATGAATTGGTCTTATCGAGTAAACAAATTTTCCTAATCTTTCTGTTCAAGCGCCATCTAC”: the binding signal is 0.982 RPM ratio (pull-down/input).

As for “GATGATTGTTCTCCCAGCTGATGAATTCCCTGTCTCGAGTAAACAAATTTTCCTAATCTTTCTGTTCAAGCGCCATCTAC”, the binding signal was 0.738 RPM ratio (pull-down/input).

As to “GATGATTGTTCTCCCAGCTGATGAATTCGCCGATTCGAGTAAACAAATTTTCCTAATCTTTCTGTTCAAGCGCCATCTAC”, the binding signal is 0.86 RPM ratio (pull-down/input).

Regarding “GATGATTGTTCTCCCAGCTGATGAATTGCTACTGTCGAGTAAACAAATTTTCCTAATCTTTCTGTTCAAGCGCCATCTAC”, the binding signal was 1.11 RPM ratio (pull-down/input).

“GATGATTGTTCTCCCAGCTGATGAATTGGTCGTCTCGAGTAAACAAATTTTCCTAATCTTTCTGTTCAAGCGCCATCTAC”: the binding signal was 0.797 RPM ratio (pull-down/input).
